Among all 360,000 compounds or so, about 16,000 (4.4%) were called active. The inconclusive results got no clear call from the source; some entries with a clear call stand among them for comparison. Calls come from the whole dose curve; as a rule, active = well fitted inhibition curve with a large enough effect; inconclusive = small, poorly fitted or top-dose-only effect; inactive = no such curve, though single readings can be large or run the other way. Where the call is inconclusive, the potency comes from a doubtful curve fit.
Molecular target: Bromodomain adjacent to zinc finger domain protein 2B (Homo sapiens) (UniProt Q9UIF8)
Assay: qHTS Assay for Inhibitors of BAZ2B; note: nearly all actives have a fitted effect of over 60% in size
Details: AlphaScreen BAZ2B-H3K14Ac peptide displacement; activity change, negative = inhibition: at 114 µM (top of the series) unless noted
Procedure, shortened: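 Multi-concentration screen (max 110 uM) measuring displacement of acetylated histone H3 peptide from BAZ2B by AlphaScreen, using 50 nM protein, 50 nM peptide and 10 ug/mL streptavidin donor plus Ni-chelate acceptor beads.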
% is set by controls: 0 for no effect and ±100 for the full control effect; potency is the fitted concentration of half-maximal effect; tags give direction and shape of the fitted curve.

Chain of UniProt Q9UIF8 (Q9UIF8 whole entry, looked up, the tested form may be a part): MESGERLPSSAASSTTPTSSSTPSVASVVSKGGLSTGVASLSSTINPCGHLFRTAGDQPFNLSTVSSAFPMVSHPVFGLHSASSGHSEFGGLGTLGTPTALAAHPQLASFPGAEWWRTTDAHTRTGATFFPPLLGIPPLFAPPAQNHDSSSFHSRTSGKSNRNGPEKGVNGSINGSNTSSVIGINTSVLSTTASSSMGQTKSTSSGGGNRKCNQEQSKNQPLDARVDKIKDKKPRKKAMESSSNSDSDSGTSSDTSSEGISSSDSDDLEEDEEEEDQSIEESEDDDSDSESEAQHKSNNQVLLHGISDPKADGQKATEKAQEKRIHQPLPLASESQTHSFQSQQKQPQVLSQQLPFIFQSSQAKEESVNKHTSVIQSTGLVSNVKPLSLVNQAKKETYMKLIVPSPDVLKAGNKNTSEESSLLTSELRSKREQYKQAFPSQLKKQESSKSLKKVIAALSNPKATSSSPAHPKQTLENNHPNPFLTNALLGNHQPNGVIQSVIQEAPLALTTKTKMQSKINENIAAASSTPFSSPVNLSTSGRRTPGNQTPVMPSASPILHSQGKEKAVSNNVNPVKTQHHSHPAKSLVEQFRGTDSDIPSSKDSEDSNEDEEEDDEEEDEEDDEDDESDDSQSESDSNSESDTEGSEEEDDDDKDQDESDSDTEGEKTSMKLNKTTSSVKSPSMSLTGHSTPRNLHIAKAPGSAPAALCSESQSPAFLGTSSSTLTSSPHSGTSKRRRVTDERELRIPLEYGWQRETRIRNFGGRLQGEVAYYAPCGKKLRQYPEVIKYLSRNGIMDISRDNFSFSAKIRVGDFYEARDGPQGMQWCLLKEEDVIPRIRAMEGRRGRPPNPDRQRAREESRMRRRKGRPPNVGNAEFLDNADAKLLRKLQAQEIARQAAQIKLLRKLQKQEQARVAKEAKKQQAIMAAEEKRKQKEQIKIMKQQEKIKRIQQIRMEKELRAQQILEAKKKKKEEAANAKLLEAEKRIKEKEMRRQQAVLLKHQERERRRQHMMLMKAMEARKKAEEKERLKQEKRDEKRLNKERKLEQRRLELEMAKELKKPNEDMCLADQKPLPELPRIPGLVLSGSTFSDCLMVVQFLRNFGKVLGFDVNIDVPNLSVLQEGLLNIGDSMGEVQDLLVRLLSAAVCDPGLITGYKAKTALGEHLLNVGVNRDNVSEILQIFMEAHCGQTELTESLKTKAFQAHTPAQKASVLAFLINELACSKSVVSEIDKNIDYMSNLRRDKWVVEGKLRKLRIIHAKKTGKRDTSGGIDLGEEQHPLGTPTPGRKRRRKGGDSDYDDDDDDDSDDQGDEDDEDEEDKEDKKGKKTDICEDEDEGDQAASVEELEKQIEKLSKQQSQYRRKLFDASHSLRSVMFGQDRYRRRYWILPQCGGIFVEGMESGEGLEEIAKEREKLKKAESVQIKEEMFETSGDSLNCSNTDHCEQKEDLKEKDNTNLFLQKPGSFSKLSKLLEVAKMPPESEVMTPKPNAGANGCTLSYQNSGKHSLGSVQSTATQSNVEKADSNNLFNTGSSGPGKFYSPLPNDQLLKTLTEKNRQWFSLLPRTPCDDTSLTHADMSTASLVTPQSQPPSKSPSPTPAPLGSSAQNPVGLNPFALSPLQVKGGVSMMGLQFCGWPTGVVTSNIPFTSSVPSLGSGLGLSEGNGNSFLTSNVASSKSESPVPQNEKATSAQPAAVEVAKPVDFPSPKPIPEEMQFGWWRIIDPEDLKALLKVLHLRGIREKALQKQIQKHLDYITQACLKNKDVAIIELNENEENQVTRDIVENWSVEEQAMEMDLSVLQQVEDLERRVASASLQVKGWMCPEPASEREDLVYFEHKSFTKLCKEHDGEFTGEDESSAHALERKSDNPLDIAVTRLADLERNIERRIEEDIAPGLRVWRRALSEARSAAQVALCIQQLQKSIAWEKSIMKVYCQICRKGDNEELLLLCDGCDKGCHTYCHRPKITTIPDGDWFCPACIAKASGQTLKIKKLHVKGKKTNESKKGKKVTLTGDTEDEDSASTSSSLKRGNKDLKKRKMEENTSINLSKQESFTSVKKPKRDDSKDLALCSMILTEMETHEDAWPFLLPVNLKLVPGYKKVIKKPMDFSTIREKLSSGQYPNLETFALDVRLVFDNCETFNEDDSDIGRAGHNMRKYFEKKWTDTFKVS

Row | SMILES | activity change, negative = inhibition | Potency
1 | Cc1ccc(NC(=O)Cn2cnc([N+](=O)[O-])c2)cc1C | inactive: -19% | –
2 | CCOC(=O)c1cc2c(ccn2-c2ccc(F)cc2)n1CC(=O)N(CC)CC | – | inconclusive: 44.7 µM [inhibitor, partial curve]
3 | c1ccc(-c2n[nH]c(-c3ccccn3)n2)cc1 | – | active: 8.91 µM
4 | CCCOc1ccc(C(=O)NCC2OCCc3ccccc32)cc1 (centres undefined) | inactive: 10.6% | –
5 | Cc1ccc(CNc2oc(-c3ccc(COc4ccc(C)cc4)o3)nc2C#N)cc1 | – | inconclusive: 8.91 µM [inhibitor, full curve]
6 | O=c1c2ccccc2nc(SCc2ccc([N+](=O)[O-])cc2)n1-c1ccccc1 | – | inconclusive: 89.1 µM [inhibitor, single point]
7 | Cc1ccc(NC(=O)c2c(C)nc3sc(C(=O)Nc4ccc(F)cc4)c(N)c3c2-c2ccc(C)o2)c(C)c1 | inactive: -3.87% | –
8 | C=CCOC(=O)C1=C(C)NC(C)=C(C(=O)OCC=C)C1c1ccco1 | – | inconclusive: 79.4 µM [inhibitor, single point]
9 | COc1ccc(C2c3c(n[nH]c3C)CC(C)(O)C2C(C)=O)cc1OC (centres undefined) | – | inconclusive: 89.1 µM [inhibitor, single point]
10 | COCCNC(=S)N/N=C(\C)c1ccc2cc(OC)ccc2c1 | – | inconclusive: 22.4 µM [inhibitor, full curve, poor fit]
11 | Cc1cc(C(=O)N/N=C2\CC(=O)CC(C)(C)C2)c(C)n1-c1ccccc1 | – | inconclusive: 79.4 µM [inhibitor, partial curve]
12 | O=C(CCN1CCN2CCCC2C1)N1c2ccccc2Sc2ccc(Cl)cc21 (centres undefined) | – | inconclusive: 79.4 µM [inhibitor, partial curve]
13 | Cc1ccc2nc(/C(C#N)=C\c3cc(C)n(-c4cccc([N+](=O)[O-])c4)c3C)[nH]c2c1 | – | inconclusive: 7.94 µM [inhibitor, full curve, poor fit]
14 | O=S(=O)(/N=C(\Nc1ccc(F)cc1)C(F)(F)F)c1ccccc1 | – | inconclusive: 89.1 µM [inhibitor, single point]
15 | c1ccc(Cn2c(SCc3nc4ccccc4s3)nnc2-c2ccco2)cc1 | – | inconclusive: 89.1 µM [inhibitor, single point]
16 | COc1cc(CNCc2ccccn2)ccc1OCc1ccc(Cl)cc1Cl | – | inconclusive: 56.2 µM [inhibitor, partial curve, poor fit]
17 | O=C(c1ccc(OC2CCN(Cc3ccccn3)CC2)cc1)N1CCC[C@H]1CO | inactive: -30.6% | –
18 | Cc1ccc(C(=O)c2no[n+]([O-])c2C(=O)c2ccc(C)cc2)cc1 | – | inconclusive: 79.4 µM [inhibitor, single point]
19 | Oc1ccc(Br)cc1CNc1cccc2cccnc12 | – | inconclusive: 89.1 µM [inhibitor, single point]
20 | CCCN1CCc2c(sc(NC(=O)c3ccc(S(=O)(=O)N(C)c4ccccc4)cc3)c2C(=O)NC)C1 | – | inconclusive: 50.1 µM [inhibitor, partial curve]
21 | CN1C(=O)C(C)(C)c2cc(S(=O)(=O)N3CCN(c4cccc(Cl)c4)CC3)ccc21 | – | inconclusive: 89.1 µM [inhibitor, single point]
22 | Oc1ccc(/C(Cc2ccccn2)=N\Nc2ccccc2)c(O)c1 | – | active: 31.6 µM
23 | COc1cc2c(cc1OC)/C(=C/C(=O)c1ccc(F)cc1)NCC2 | – | active: 50.1 µM

Row | SMILES | activity change, negative = inhibition | Potency
24 | COc1ccc(-c2nnn(Cc3nn[nH]n3)n2)cc1OC | – | inconclusive: 89.1 µM [inhibitor, single point]
25 | COCCCNC(=O)c1cnc2sc(N3CCCCCC3)nn2c1=O | inactive: -11.1% | –
26 | COc1ccc(/C=C/C(=O)NCCCn2ccnc2)cc1 | – | inconclusive: 89.1 µM [inhibitor, single point]
27 | COc1cccc(NC(=O)CCc2nc3c(C)nn(-c4ccc(C)cc4)c3n(C)c2=O)c1 | inactive: -19.9% | –
28 | Cc1csc(NC(=S)Nc2cccc(Cl)c2)n1 | – | inconclusive: 44.7 µM [inhibitor, partial curve]
29 | CCCCN(CCCNC(=O)CN1N=C(c2ccc(C)cc2)CCC1=O)c1ccccc1 | – | active: 20 µM
30 | Cc1ccc(NC2=C/C(=N/S(=O)(=O)c3cccs3)c3ccccc3C2=O)cc1 | – | inconclusive: 1.58 µM [inhibitor, full curve]
31 | COc1ccc(C(=O)Nc2ccc(Br)cc2F)cc1S(=O)(=O)N1CCCC1 | – | inconclusive: 39.8 µM [inhibitor, single point]
32 | COc1ccccc1-c1noc(-c2ccc(NC3CCCCC3)c([N+](=O)[O-])c2)n1 | – | inconclusive: 1.41 µM [inhibitor, full curve, poor fit]
33 | O=C1c2cccnc2C(O)N1C1CCCCC1 (centres undefined) | inactive: -2.9% | –
34 | CCOC(=O)c1c(NC(=S)Nc2cccc(C)c2)sc2c1CC(C)(C)SC2 | – | inconclusive: 50.1 µM [inhibitor, partial curve]
35 | CCn1c(=O)c(CCC(=O)NCCN2CCOCC2)c(C)c2c(C)nn(-c3ccccc3)c21 | – | inconclusive: 89.1 µM [inhibitor, single point]
36 | Cc1ccccc1Nc1sc(C(=O)Nc2cccc(Cl)c2)c(N)c1C(N)=O | – | inconclusive: 89.1 µM [inhibitor, single point]
37 | COC(=O)C/C=C/[C@@H](C)[C@@H](/C=N/OC[C@@H](C)[C@H](OCc1ccccc1)C(C)C)NS(=O)(=O)c1ccc(C)cc1 | inactive: -1.17% | –
38 | Cc1cc(C(=O)NNC(=S)NC2CCCCC2)cs1 | inactive: -1.79% | –
39 | COc1ccc(S(=O)(=O)Oc2cccc(C(=S)N3CCOCC3)c2)cc1 | inactive: -27.3% | –
40 | COc1ccc(Br)cc1C1Nc2cccc3cccc(c23)N1 | – | active: 44.7 µM
41 | CC(C)(C)c1ccc(C(=O)NC(=S)NCc2cccnc2)cc1 | inactive: 30.2% | –
42 | COc1cccc(/C=C2\SC(=S)N(C(C)C(=O)NC3C=CS(=O)(=O)C3)C2=O)c1 (centres undefined) | – | active: 39.8 µM
43 | Nc1nn(-c2ccccc2)c(N)c1N=Nc1cccc(F)c1 | – | active: 35.5 µM
44 | Cc1ccc(NC(=O)c2cccs2)cc1 | inactive: -0.805% | –
45 | CC(=O)c1ccc(C(=O)N2CCc3c([nH]c4ccccc34)C2c2ccccn2)s1 (centres undefined) | – | active: 35.5 µM
46 | Nc1nc2c(s1)CCc1ccccc1-2 | – | inconclusive: 56.2 µM [inhibitor, partial curve]

Row | SMILES | activity change, negative = inhibition | Potency
47 | CCOC(=O)c1sc2cccc(F)c2c1S(=O)(=O)N1CCN(c2cccc(Cl)c2)CC1 | – | inconclusive: 89.1 µM [inhibitor, single point]
48 | N#CCCN(Cc1cccnc1)S(=O)(=O)c1ccc2ccccc2c1 | inactive: 5.42% | –
49 | COc1cc(CNc2ccc(N3CCCC3)cc2)ccc1OCc1ccccc1 | – | active: 12.6 µM
50 | O=C(Nc1ccccc1)N1CCC(C(=O)N(Cc2ccco2)Cc2cccs2)CC1 | – | inconclusive: 79.4 µM [inhibitor, single point]
51 | Cn1c(-c2ccc(Br)o2)nc2cc(Br)ccc21 | inactive: -33.8% | –
52 | NS(=O)(=O)c1ccc(NC(=O)CSc2nnc(NC3CC3)s2)cc1 | – | inconclusive: 89.1 µM [inhibitor, single point]
53 | Cc1csc(NC(=O)c2ccc(C)c([N+](=O)[O-])c2)n1 | – | inconclusive: 50.1 µM [inhibitor, partial curve]
54 | COc1ccc(CCNc2nc(-c3cccnc3)cs2)cc1OC | – | inconclusive: 79.4 µM [inhibitor, single point]
55 | Cc1ccc(/C=C/c2ccc(N(C)C)cc2)[n+](C)c1 | – | inconclusive: 56.2 µM [inhibitor, partial curve]
56 | COc1ccc(CNCc2cn(-c3cccc(F)c3)nc2-c2ccc(C)o2)cc1 | – | inconclusive: 35.5 µM [inhibitor, partial curve]
57 | Cc1ccccc1-c1nc2c3ccccc3nc(=S)n2[nH]1 | – | inconclusive: 89.1 µM [inhibitor, single point]
58 | O=C(COc1ccc(Br)cc1)Nc1ccc(CN2CCOCC2)cc1 | – | inconclusive: 1.41 µM [inhibitor, full curve, poor fit]
59 | Cn1cc(CN2CC3C[C@@H]4CC2C[C@H](C3)C4)c(-c2ccc3c(c2)OCCO3)n1 | – | inconclusive: 89.1 µM [inhibitor, single point]
60 | COc1ccc2c(C)c(CC(=O)NCc3ccc(C)cc3)c(=O)oc2c1OC | inactive: 34.2% | –
61 | CCN(c1ccc(NS(=O)(=O)c2cc(Cl)ccc2Cl)cc1)C(C)C | – | active: 35.5 µM
62 | O=c1oc2ccccc2c(Nc2ccc(O)cc2)c1[N+](=O)[O-] | – | inconclusive: 89.1 µM [inhibitor, single point]
63 | C#CCOCCOCCOCCNc1nc(N2CCN(C(=O)[C@H]([C@@H](C)CC)n3cc([C@@H](N)Cc4ccc(O)cc4)nn3)CC2)nc(N2CCN(C(=O)[C@H]([C@@H](C)CC)n3cc([C@@H](N)Cc4ccc(O)cc4)nn3)CC2)n1 | – | active: 50.1 µM
64 | CCOc1ccc(NCC(=O)c2ccc(C)cc2)cc1 | – | active: 35.5 µM
65 | COc1cc2c(cc1OC)CN(C(=O)CCc1c[nH]c3ccccc13)[C@H](C(=O)O)C2 | inactive: -18.2% | –
66 | CNC(=S)N/N=C/c1cn(CCOc2ccccc2OC)c2ccccc12 | – | inconclusive: 39.8 µM [inhibitor, partial curve]
67 | CCc1nnc(NS(=O)(=O)c2ccc(NC(=O)CCC(=O)OC)cc2)s1 | – | inconclusive: 89.1 µM [inhibitor, single point]
68 | COc1cc2c(cc1OC)CN(C(=O)/C=C/c1ccc([N+](=O)[O-])cc1)CC2 | – | inconclusive: 44.7 µM [inhibitor, partial curve]
69 | CCOC(=O)C(Cc1ccccc1)C(=O)Nc1ccc(N(CC)CC)cc1 (centres undefined) | – | inconclusive: 35.5 µM [inhibitor, partial curve]

Source: PubChem BioAssay AID504333 (National Center for Advancing Translational Sciences (NCATS), 2011)
